# Paper PMC9911399, “Two distinct binding modes provide the RNA-binding protein RbFox with extraordinary sequence specificity”
# Positions count from the first letter of the chain named. The list shows a part of the results.
# T1: RBFOX1 RRM RbFoxmut (Fox-RRM*) (Homo sapiens, UniProt Q9NWB1 109-208, R118D;E147R;N151S;E152T)
# T1 sequence: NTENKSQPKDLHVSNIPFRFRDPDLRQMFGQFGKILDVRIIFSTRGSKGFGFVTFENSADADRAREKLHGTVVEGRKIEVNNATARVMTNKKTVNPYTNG
# B1: CCCGAAU (DNA:RNA)
# RNA: GGGAGACCGGAAUUCAGAUUGUCCCCCGAAUUUAAAUCCCGUCGUAGCCACCA
# DNA 1: CAATCTGAATTCCGGTCTCCC
# DNA 2: TGGTGGCTACGACGGGATT
# B2: UGUUUUU (DNA:RNA)
# RNA: B1 RNA with C25U, C26G, C27U, G28U, A29U, A30U
# DNA 1: CAATCTGAATTCCGGTCTCCC
# DNA 2: TGGTGGCTACGACGGGATT
# B3: GACCCGU (DNA:RNA)
# RNA: B1 RNA with C25G, C26A, G28C, A29C, A30G
# DNA 1: CAATCTGAATTCCGGTCTCCC
# DNA 2: TGGTGGCTACGACGGGATT
# B4: GUCCCAA (DNA:RNA)
# RNA: B1 RNA with C25G, C26U, G28C, A29C, U31A
# DNA 1: CAATCTGAATTCCGGTCTCCC
# DNA 2: TGGTGGCTACGACGGGATT
# B5: AGCUCGA (DNA:RNA)
# RNA: B1 RNA with C25A, C26G, G28U, A29C, A30G, U31A
# DNA 1: CAATCTGAATTCCGGTCTCCC
# DNA 2: TGGTGGCTACGACGGGATT
# B6: UUGUUUG (DNA:RNA)
# RNA: GGGAGACCGGAAUUCAGAUUGUCCUUGUUUGUUAAAUCCCGUCGUAGCCACCA
# DNA 1: CAATCTGAATTCCGGTCTCCC
# DNA 2: TGGTGGCTACGACGGGATT
# B7: CCCUAUC (DNA:RNA)
# RNA: B1 RNA with G28U, A30U, U31C
# DNA 1: CAATCTGAATTCCGGTCTCCC
# DNA 2: TGGTGGCTACGACGGGATT
# B8: UUCCCCA (DNA:RNA)
# RNA: B6 RNA with G27C, U28C, U29C, U30C, G31A
# DNA 1: CAATCTGAATTCCGGTCTCCC
# DNA 2: TGGTGGCTACGACGGGATT
# B9: CAUAUUG (DNA:RNA)
# RNA: B6 RNA with U25C, U26A, G27U, U28A
# DNA 1: CAATCTGAATTCCGGTCTCCC
# DNA 2: TGGTGGCTACGACGGGATT
# B10: CUCUACU (DNA:RNA)
# RNA: B1 RNA with C26U, G28U, A30C
# DNA 1: CAATCTGAATTCCGGTCTCCC
# DNA 2: TGGTGGCTACGACGGGATT
# B11: AGAGGAG (DNA:RNA)
# RNA: B1 RNA with C25A, C26G, C27A, A29G, U31G
# DNA 1: CAATCTGAATTCCGGTCTCCC
# DNA 2: TGGTGGCTACGACGGGATT
# B12: ACAGCCA (DNA:RNA)
# RNA: B1 RNA with C25A, C27A, A29C, A30C, U31A
# DNA 1: CAATCTGAATTCCGGTCTCCC
# DNA 2: TGGTGGCTACGACGGGATT
# B13: GGCCAUC (DNA:RNA)
# RNA: B1 RNA with C25G, C26G, G28C, A30U, U31C
# DNA 1: CAATCTGAATTCCGGTCTCCC
# DNA 2: TGGTGGCTACGACGGGATT
# B14: GACGGCA (DNA:RNA)
# RNA: B1 RNA with C25G, C26A, A29G, A30C, U31A
# DNA 1: CAATCTGAATTCCGGTCTCCC
# DNA 2: TGGTGGCTACGACGGGATT
# B15: UUAUUAU (DNA:RNA)
# RNA: B6 RNA with G27A, U30A, G31U
# DNA 1: CAATCTGAATTCCGGTCTCCC
# DNA 2: TGGTGGCTACGACGGGATT
# B16: AGAGUGA (DNA:RNA)
# RNA: B1 RNA with C25A, C26G, C27A, A29U, A30G, U31A
# DNA 1: CAATCTGAATTCCGGTCTCCC
# DNA 2: TGGTGGCTACGACGGGATT
# B17: CGUAACA (DNA:RNA)
# RNA: B1 RNA with C26G, C27U, G28A, A30C, U31A
# DNA 1: CAATCTGAATTCCGGTCTCCC
# DNA 2: TGGTGGCTACGACGGGATT
# B18: GAGUGUU (DNA:RNA)
# RNA: B6 RNA with U25G, U26A, U29G, G31U
# DNA 1: CAATCTGAATTCCGGTCTCCC
# DNA 2: TGGTGGCTACGACGGGATT
# B19: UGGGAUU (DNA:RNA)
# RNA: B1 RNA with C25U, C26G, C27G, A30U
# DNA 1: CAATCTGAATTCCGGTCTCCC
# DNA 2: TGGTGGCTACGACGGGATT
# B20: CUUCCUA (DNA:RNA)
# RNA: B6 RNA with U25C, G27U, U28C, U29C, G31A
# DNA 1: CAATCTGAATTCCGGTCTCCC
# DNA 2: TGGTGGCTACGACGGGATT
# Biological target: T1, RBFOX1 RRM RbFoxmut (Fox-RRM*)
# Assay: EMSA; HiTS-Eq, 1 nM pool, 10 min; buffer printed only for the single-RNA assays: 10 mM Tris pH 7.5, 150 mM NaCl, 3.4 mM EDTA, 0.001% NP-40, 30 C
# Conditions: tags: His6 N-terminal (pET28a); label: 5' 32P
# Outline: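 Relative association constants, normalised to the cognate motif, were derived by comparing read counts of each RNA species with those of the control reaction. The RNA sequenced was the free fraction, separated by 8% native PAGE after a 10 min equilibration in 50 µL of 1 nM 5′-radiolabelled RNA (7 randomized nucleotides) with increasing concentrations of purified wild-type or mutant RbFox RRM.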
row,Binder,binding signal
1,B1,0.109 KA relative to UGCAUGU
2,B2,0.0878 KA relative to UGCAUGU
3,B3,0.0805 KA relative to UGCAUGU
4,B4,0.0664 KA relative to UGCAUGU
5,B5,0.113 KA relative to UGCAUGU
6,B6,0.709 KA relative to UGCAUGU
7,B7,0.0498 KA relative to UGCAUGU
8,B8,0.0621 KA relative to UGCAUGU
9,B9,0.131 KA relative to UGCAUGU
10,B10,0.0889 KA relative to UGCAUGU
11,B11,0.116 KA relative to UGCAUGU
12,B12,0.0917 KA relative to UGCAUGU
13,B13,0.125 KA relative to UGCAUGU
14,B14,0.149 KA relative to UGCAUGU
15,B15,0.116 KA relative to UGCAUGU
16,B16,0.11 KA relative to UGCAUGU
17,B17,0.101 KA relative to UGCAUGU
18,B18,0.147 KA relative to UGCAUGU
19,B19,0.0869 KA relative to UGCAUGU
20,B20,0.102 KA relative to UGCAUGU
